# According to the supplement of paper PMC12067230:
# This is a noisy data set.
# Assay: amyloid nucleation score relative to library mode (yeast Sup35 reporter selection) (log enrichment difference); higher = more amyloid nucleation; sequences are the first 22 residues of the Bri2 peptide extended by up to 12 random residues
# Settings: random library (experiment): 1;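 active = nucleation score significantly above 0 at FDR 0.05; inactive = not significantly above 0 or absent from output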
# 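Note: [psi-pin-] Saccharomyces cerevisiae expressing SupN fusions, induced by 100 µM Cu2SO4, selected 7 d at 30 °C without adenine and uracil, scored by deep sequencing of output versus input.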
row,Sequence,amyloid nucleation score
1,EASNCFAIRHFENKFAVETLICVNRDDKCCTCGS,7.35
2,EASNCFAIRHFENKFAVETLICVSMKGPKGMLWS,inactive
3,EASNCFAIRHFENKFAVETLICRVICRF,inactive
4,EASNCFAIRHFENKFAVETLICLSDYWPDLGNRT,inactive
5,EASNCFAIRHFENKFAVETLICRASLWNYTLINV,inactive
6,EASNCFAIRHFENKFAVETLICWMRQGGPVTVPR,-0.331
7,EASNCFAIRHFENKFAVETLICCIPVITVQYSAN,7.81
8,EASNCFAIRHFENKFAVETLICFSEFTRDRLAFP,4.47
9,EASNCFAIRHFENKFAVETLICVERVGLRIMLD,inactive
10,EASNCFAIRHFENKFAVETLICHQRRRMNGRHRG,inactive
11,EASNCFAIRHFENKFAVETLICPFMFYICSDVPS,5.97
12,EASNCFAIRHFENKFAVETLICALSYGLINVLGS,-0.438
13,EASNCFAIRHFENKFAVETLICPIYHFGAFRLTV,-0.219
14,EASNCFAIRHFENKFAVETLICDGWEPVVRVRAQ,inactive
15,EASNCFAIRHFENKFAVETLICWNFTPRTMETCG,inactive
16,EASNCFAIRHFENKFAVETLICMMKSCEDRSRSF,4.21
17,EASNCFAIRHFENKFAVETLICPK,inactive
18,EASNCFAIRHFENKFAVETLICVRMVFEFELRLG,inactive
19,EASNCFAIRHFENKFAVETLICVVCEWDGQAHLS,4.77
20,EASNCFAIRHFENKFAVETLICRLARCDVAHWKW,inactive
21,EASNCFAIRHFENKFAVETLICEVGPLVVRLC,0.087
22,EASNCFAIRHFENKFAVETLICCVYVA,7.45
23,EASNCFAIRHFENKFAVETLICLVENCNYRCPRQ,6.22
24,EASNCFAIRHFENKFAVETLICLERVWSSRRILY,inactive

row,Sequence,amyloid nucleation score
1,EASNCFAIRHFENKFAVETLICNPRAPDARFFFK,2.88
2,EASNCFAIRHFENKFAVETLICCSL,7.44
3,EASNCFAIRHFENKFAVETLICLVPLTLRYRLSR,inactive
4,EASNCFAIRHFENKFAVETLICDGEIYLAVIKVP,inactive
5,EASNCFAIRHFENKFAVETLICGDNRE,inactive
6,EASNCFAIRHFENKFAVETLICRLGVGYTACVGG,0.627
7,EASNCFAIRHFENKFAVETLICRRILSKYGLEMT,inactive
8,EASNCFAIRHFENKFAVETLICVCAYLRLFHAGC,inactive
9,EASNCFAIRHFENKFAVETLICVVSHVMASYVEG,inactive
10,EASNCFAIRHFENKFAVETLICGWKVVAYDPVSS,2.75
11,EASNCFAIRHFENKFAVETLICHTRPGYLRVHFG,inactive
12,EASNCFAIRHFENKFAVETLICDLRANKAGVAVE,-0.129
13,EASNCFAIRHFENKFAVETLICICVWPLRLRGNV,inactive
14,EASNCFAIRHFENKFAVETLICNLGLLDKRFDAR,3.41
15,EASNCFAIRHFENKFAVETLICYLFLT,inactive
16,EASNCFAIRHFENKFAVETLICARDSFQVVKTGR,inactive
17,EASNCFAIRHFENKFAVETLICLHFGGCVPKGCN,6.79
18,EASNCFAIRHFENKFAVETLICRRR,inactive
19,EASNCFAIRHFENKFAVETLICQRPCRRLARYPG,inactive
20,EASNCFAIRHFENKFAVETLICPMGTAGRRRRCA,inactive
21,EASNCFAIRHFENKFAVETLICWVPVFRRCSQWF,0.428
22,EASNCFAIRHFENKFAVETLICGTVGAAKGNTLG,inactive
23,EASNCFAIRHFENKFAVETLICDESHCA,inactive
24,EASNCFAIRHFENKFAVETLICVMVTFGGVEGAM,inactive

# Same assay, conditions: random library (experiment): 2
row,Sequence,amyloid nucleation score
1,EASNCFAIRHFENKFAVETLICDVFVRPFVFLFI,inactive
2,EASNCFAIRHFENKFAVETLICVWM,2.88
3,EASNCFAIRHFENKFAVETLICTYSVCCPGIGIG,3.75
4,EASNCFAIRHFENKFAVETLICKFGYFVGVYKEQ,2.46
5,EASNCFAIRHFENKFAVETLICTCLVLLNVRVEY,inactive
6,EASNCFAIRHFENKFAVETLICWTRMSTLENRWR,inactive
7,EASNCFAIRHFENKFAVETLICFSNEWKSYALKG,inactive
8,EASNCFAIRHFENKFAVETLICNRNLNGRTLCVR,inactive
9,EASNCFAIRHFENKFAVETLICYTRYTFFSWLGE,inactive
10,EASNCFAIRHFENKFAVETLICRWKLGSAMAFWR,0.261
11,EASNCFAIRHFENKFAVETLICDITFIIVFTIQC,inactive
12,EASNCFAIRHFENKFAVETLICLRSYKVCPSFCG,4.11
13,EASNCFAIRHFENKFAVETLICLFPCAGGLSSTL,9.64
14,EASNCFAIRHFENKFAVETLICMSKSSRMSMEGQ,3.94
15,EASNCFAIRHFENKFAVETLICGTMMKYVLSMPR,3.81
16,EASNCFAIRHFENKFAVETLICVILLLSICFLRM,-0.122
17,EASNCFAIRHFENKFAVETLICIMVVMAGRQYVW,inactive
18,EASNCFAIRHFENKFAVETLICVWDMLVDNSYVR,inactive
19,EASNCFAIRHFENKFAVETLICWSWVG,8.53
20,EASNCFAIRHFENKFAVETLICMYLVVYALVHCR,inactive
21,EASNCFAIRHFENKFAVETLICFHIVV,inactive

row,Sequence,amyloid nucleation score
1,EASNCFAIRHFENKFAVETLICYIRYLSSFVEYF,inactive
2,EASNCFAIRHFENKFAVETLICRNMVHFTYKCVQ,1.97
3,EASNCFAIRHFENKFAVETLICLVDYMGSNWPVR,2.99
4,EASNCFAIRHFENKFAVETLICLSHFSIEGNCWD,-0.293
5,EASNCFAIRHFENKFAVETLICPGVLMMRSIPGC,4.7
6,EASNCFAIRHFENKFAVETLICVVLVGMTGYC,inactive
7,EASNCFAIRHFENKFAVETLICRAEGFVTTASSS,inactive
8,EASNCFAIRHFENKFAVETLICMCCATDTILLGL,7.31
9,EASNCFAIRHFENKFAVETLICGWFTLSRYRS,inactive
10,EASNCFAIRHFENKFAVETLICEPWIIFTHLMSR,inactive
11,EASNCFAIRHFENKFAVETLICFASHFVE,4.4
12,EASNCFAIRHFENKFAVETLICGVLALPHLSIGR,5.3
13,EASNCFAIRHFENKFAVETLICFINNMFLFCLRR,inactive
14,EASNCFAIRHFENKFAVETLICGTNNYVRSLA,0.598
15,EASNCFAIRHFENKFAVETLICGLVFGNMMWE,5.4
16,EASNCFAIRHFENKFAVETLICDKTVNKIPDIRL,inactive
17,EASNCFAIRHFENKFAVETLICVMKVSTFSYAPR,3.58
18,EASNCFAIRHFENKFAVETLICHVVYNSTCSLEI,2.26
19,EASNCFAIRHFENKFAVETLICCTIKGRSIFPYY,6.51
20,EASNCFAIRHFENKFAVETLICFGCPIHDSIGEV,8.62

# Same assay, conditions: random library (experiment): 3
row,Sequence,amyloid nucleation score
1,EASNCFAIRHFENKFAVETLICFCRRLARTTANV,inactive
2,EASNCFAIRHFENKFAVETLICCGLSLYMAWDYG,0.675
3,EASNCFAIRHFENKFAVETLICGVWGSTDATFNA,4.84
4,EASNCFAIRHFENKFAVETLICTVQLKVVYRSGT,inactive
5,EASNCFAIRHFENKFAVETLICAKRCTCR,inactive
6,EASNCFAIRHFENKFAVETLICGVNFGDCVGRTY,7.22
7,EASNCFAIRHFENKFAVETLICMLKNAMLEPQKA,inactive
8,EASNCFAIRHFENKFAVETLICAIKSST,inactive
9,EASNCFAIRHFENKFAVETLICGRAQSTKANWVN,inactive
10,EASNCFAIRHFENKFAVETLICTKSLFLCRNAAF,inactive
11,EASNCFAIRHFENKFAVETLICMVKDGTYGEGAY,inactive
12,EASNCFAIRHFENKFAVETLICGSWRRHDMRWKG,inactive
13,EASNCFAIRHFENKFAVETLICCMHGRRYCDVAR,inactive
14,EASNCFAIRHFENKFAVETLICWGCFAVGLAWQV,inactive
15,EASNCFAIRHFENKFAVETLICKLEFSRHISSNL,4.11
16,EASNCFAIRHFENKFAVETLICYAVFGHCDVMRW,6.43
17,EASNCFAIRHFENKFAVETLICVGWNFSMMVDYV,2.6
18,EASNCFAIRHFENKFAVETLICTYHDYSH,inactive
19,EASNCFAIRHFENKFAVETLICKMPMFHCSVSSL,inactive
20,EASNCFAIRHFENKFAVETLICLGLEQPCICVPQ,6.96
21,EASNCFAIRHFENKFAVETLICIVQ,5.09
22,EASNCFAIRHFENKFAVETLICLYCGACCQCKNR,8.79
23,EASNCFAIRHFENKFAVETLICTGCWAIAQLVGK,inactive
24,EASNCFAIRHFENKFAVETLICGMSAADKLRRSW,1.88
25,EASNCFAIRHFENKFAVETLICVTHVHVYDYWLL,inactive
26,EASNCFAIRHFENKFAVETLICCLREVIYLTKCL,inactive
27,EASNCFAIRHFENKFAVETLICFWCHRMHWREWV,inactive
28,EASNCFAIRHFENKFAVETLICCTGHAARRSRDE,0.401
29,EASNCFAIRHFENKFAVETLICMCVYWRAQYGWS,inactive
30,EASNCFAIRHFENKFAVETLICFSCLGNAMSVTG,8.11
